Assay results published in ChEMBL document CHEMBL4888484, “Replenishing the malaria drug discovery pipeline: Screening and hit evaluation of the MMV Hit Generation Library 1 (HGL1) against asexual blood stage Plasmodium falciparum ,using a nano luciferase reporter read-out” (2022).
The whole screen tested about 4,800 compounds, of which about 410 (8.5%) showed an effect of 50% or more. The list shows a part of the results.

Tested on: Plasmodium falciparum
Assay: Confirmatory screen in NF54 pLDH assay, in single point, at 2uM, 72h
Assay type: functional, Erythrocyte
Conditions: timepoint 72 hour

Q: How did the “% Inhibition” value turn out when `c1cn2cnnc2c(N(CC2CC2)CC2CC2)n1` was run?
A: -5%

Q: With `Cc1ccc(N2CCN(c3ncc4c(=O)n(-c5ccc6c(c5)OCO6)c(=O)[nH]c4n3)CC2)cc1` as the molecule, how does the “% Inhibition” value read?
A: -16%

Q: Which “% Inhibition” value does the source give for `Cc1cc(-n2c(C)cc(C(=O)Cn3c(C(F)(F)F)ccc(C(N)=O)c3=O)c2C)no1` here?
A: 23%

Q: For `COc1ccc2cc3n(c2c1)C[C@](C(=O)NC1CCCCCC1)(c1ccccc1)N(Cc1ccccc1Cl)C3=O`, which “% Inhibition” value is on record?
A: 13%

Q: For `COc1ccc([C@@H]2C=C(c3ccc(Cl)cc3)N=C3NC(NC(=O)c4ccccc4OC)=NN32)cc1`, which “% Inhibition” value is on record?
A: 89%

Q: How did the “% Inhibition” value turn out when `O=S(=O)(Cc1cc(O)n(-c2ccccc2)n1)c1ccccc1` was run?
A: -4%

Q: With `CC[n+]1c(C)n(C2CCCCC2)c2ccc(C(=O)OC)cc21` as the molecule, how does the “% Inhibition” value read?
A: 1%

Q: For `O=S(=O)(N[C@H]1CCc2nnc(-c3ccc(F)cc3)n2C1)c1cccnc1`, which “% Inhibition” value is on record?
A: 13%

Q: With `Cc1noc(-c2csc(-c3c[nH]cn3)n2)n1` as the molecule, how does the “% Inhibition” value read?
A: -1%

Q: Which “% Inhibition” value does the source give for `CCCC[C@H](CC)C(=O)Nc1cc(C)ccn1` here?
A: 5%

Q: Which “% Inhibition” value does the source give for `Cc1c(S(=O)(=O)N2CCN(C(=O)c3ccc(F)cc3)CC2)cnn1C(F)F` here?
A: 4%

Q: For `CNc1nc(NCCc2ccccc2)nc2ccccc12`, which “% Inhibition” value is on record?
A: 92%

Q: For `Cc1nn(C)c(NC(=O)c2ccc(C(C)(C)C)cc2)c1C1=CCCCC1`, which “% Inhibition” value is on record?
A: -5%

Q: How did the “% Inhibition” value turn out when `Cc1cc(C(F)(F)F)nn2cnnc12` was run?
A: -18%

Q: `Cc1ccc(F)cc1S(=O)(=O)N1CC[C@]2(CCN(c3cccnc3)C2)C1` was tested. Which “% Inhibition” value did it give?
A: -20%

Q: Which “% Inhibition” value does the source give for `Cc1ccccc1NC(=O)Cc1nnc(N)s1` here?
A: -4%

Q: With `COCCN1CCc2c(C)nc3c(-c4ccc(OC)c(OC)c4)cnn3c21` as the molecule, how does the “% Inhibition” value read?
A: 19%

Q: `O=C(Nc1ccn(Cc2cccc(Cl)c2)n1)c1nn2cccnc2c1Cl` was tested. Which “% Inhibition” value did it give?
A: -24%

Q: How did the “% Inhibition” value turn out when `Cc1c(NC(=O)c2ccccc2-c2ccccc2)ccc(N2CCCC2=O)c1NC(=O)c1ccccc1-c1ccccc1` was run?
A: -15%

Q: Which “% Inhibition” value does the source give for `CNC(=O)CNC(=O)c1cccc(Cl)c1` here?
A: 12%

Q: Which “% Inhibition” value does the source give for `O=C(c1cc2ncccn2n1)N1CCc2ccccc2C1` here?
A: 11%

Q: With `CCc1ccc(CN2C(=O)c3c(C(=O)OC)ncn3C[C@@]2(C)C(=O)NC2CCCC2)cc1` as the molecule, how does the “% Inhibition” value read?
A: 13%

Q: For `Cc1cc(C(=O)N[C@@H](C)c2nc(-c3cccnc3)cs2)cc(O)n1`, which “% Inhibition” value is on record?
A: 38%

Q: With `C[N+]1(CCCC(=O)c2ccc3c(c2)OCCO3)CCC(c2ccccc2)C1` (stereo unspecified) as the molecule, how does the “% Inhibition” value read?
A: 46%

Q: How did the “% Inhibition” value turn out when `CCc1ccc(-c2n[nH]c3c2cnc2ccc(OC)cc23)cc1` was run?
A: 7%

Q: Which “% Inhibition” value does the source give for `CCCC(=O)Nc1ccc(N2CCN(CC(=O)N(CC)CC)CC2)cc1C(=O)O` here?
A: 3%

Q: For `O=C1CC(C(=O)N2CCCCC2c2nc(-c3ccccc3)c[nH]2)CN1` (stereo unspecified), which “% Inhibition” value is on record?
A: 16%

Q: `CCc1ccc(NC(=O)Cn2c(=O)ncc3cc(S(=O)(=O)N4CCCC[C@@H]4C)ccc32)cc1` was tested. Which “% Inhibition” value did it give?
A: 11%

Q: Which “% Inhibition” value does the source give for `O=S(=O)(c1ccc(Cl)cc1)N1CCC(c2cc(-c3cccc(C(F)(F)F)c3)[nH]n2)CC1` here?
A: 0%

Q: `C[C@H]1CC(C)(C)N(C)c2ccc(/C=C/c3c(C(=O)O)cnc4ccnn34)cc21` was tested. Which “% Inhibition” value did it give?
A: 15%

Q: For `CCCn1nc(-n2cnnc2)c(NC(=O)c2ccc3c(c2)OCO3)c1C`, which “% Inhibition” value is on record?
A: 7%

Q: For `CC[C@](C)(NC(=O)Nc1cncnc1OC)c1nc(C)cs1`, which “% Inhibition” value is on record?
A: 12%

Q: How did the “% Inhibition” value turn out when `O=c1ccc(F)cn1Cc1csc(C2CCCC2)n1` was run?
A: 5%

Q: `Cn1ccc(C(=O)Nc2ccc(-c3ccccc3)cn2)cc1=O` was tested. Which “% Inhibition” value did it give?
A: -11%

Q: `Cc1ccc2nc(O)c3nnc(C)n3c2c1` was tested. Which “% Inhibition” value did it give?
A: 15%

Q: `O=S(=O)(Nc1nncs1)c1cccs1` was tested. Which “% Inhibition” value did it give?
A: -10%

Q: Which “% Inhibition” value does the source give for `CC(C)(C)c1ccc(C(=O)N[C@H]2C[C@@H]3CC[C@H]2C3)cc1` here?
A: 10%

Q: How did the “% Inhibition” value turn out when `Cc1[nH]ccc(=O)c1Cc1c(Cl)cccc1Cl` was run?
A: -8%

Q: With `O=c1nc2n(nc1-c1ccccc1)C1(CCC1)Nc1ccccc1-2` as the molecule, how does the “% Inhibition” value read?
A: 60%

Q: `c1ccc(CC2=NCCc3ccccc32)cc1` was tested. Which “% Inhibition” value did it give?
A: 44%

Q: `Cc1ncc(CN(C)[C@@H](C)C(=O)Nc2ccc3c(c2)OC2(CCCCC2)O3)s1` was tested. Which “% Inhibition” value did it give?
A: 10%

Q: `O=C(Nc1ccc2c(c1)OCCO2)N1CCC(O)CC1` was tested. Which “% Inhibition” value did it give?
A: 7%

Q: With `O=C(CN1CCC2(CC1)NC(c1ccc(OC(F)(F)F)cc1)=NO2)NCc1ccc(F)cc1` as the molecule, how does the “% Inhibition” value read?
A: 8%

Q: For `CN1CCN(c2ccc(F)cc2C(=O)NCc2ccc3cnn(C)c3c2)CC1`, which “% Inhibition” value is on record?
A: -23%

Q: With `Oc1cc(-c2ccc3ccccc3c2)[nH]n1` as the molecule, how does the “% Inhibition” value read?
A: -6%

Q: How did the “% Inhibition” value turn out when `O=C(OCC(=O)N1CCN(Cc2ccccc2)CC1)c1nccc2ccccc12` was run?
A: 10%

Q: With `CC1CCCC(C)N1C(=O)CN(C)c1cccc2cccnc12` (stereo unspecified) as the molecule, how does the “% Inhibition” value read?
A: 4%

Q: For `COc1ccc(-n2nc(C(=O)N3CCN(c4ncccn4)CC3)c(=O)cc2OC)cc1`, which “% Inhibition” value is on record?
A: -29%

Q: For `O=c1c2cc(F)c(F)cc2ncn1C[C@@H](O)CC1CCCC1`, which “% Inhibition” value is on record?
A: 9%

Q: For `CN(CC[C@H](O)C(F)(F)F)Cc1ccccc1`, which “% Inhibition” value is on record?
A: -3%

Q: How did the “% Inhibition” value turn out when `CCc1ccc(CN2C(=O)c3c(C(=O)OC)ncn3C[C@@]2(C)C(=O)NC2CCCCCC2)cc1` was run?
A: 14%
